# The list shows a part of the results.
# Key:
# Test in all cases: glycan array binding signal (z-score within array); higher = stronger binding
# Settings in all cases: glycan notation: IUPAC condensed, linker removed
# [1] = target: Man(a1-2)Man(a1-2)Man(a1-3)Man
# In short: (§1)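 The binding signal is a Z-score computed within each array and averaged over linkers. Arrays of the same protein sequence at different concentrations or buffers were also averaged together. Data originate from 3228 arrays in the Consortium for Functional Glycomics database, kept only where the protein sequence was available.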
# [2] = target: Man(a1-2)Man(a1-2)Man(a1-6)[Man(a1-3)]Man
# In short: as §1
# [3] = target: Man(a1-2)Man(a1-3)Man
# In short: as §1
# [4] = target: Man(a1-2)Man(a1-3)[Man(a1-2)Man(a1-6)]Man
# In short: as §1
# [5] = target: Man(a1-2)Man(a1-3)[Man(a1-2)Man(a1-6)]Man(a1-6)[Man(a1-2)Man(a1-2)Man(a1-3)]Man
# In short: as §1
# [6] = target: Man(a1-2)Man(a1-3)[Man(a1-2)Man(a1-6)]Man(a1-6)[Man(a1-2)Man(a1-2)Man(a1-3)]Man(b1-4)GlcNAc(b1-4)GlcNAc
# In short: as §1
# [7] = target: Man(a1-2)Man(a1-3)[Man(a1-6)]Man(a1-6)[Man(a1-2)Man(a1-3)]Man(b1-4)GlcNAc(b1-4)GlcNAc
# In short: as §1
# [8] = target: Man(a1-2)Man(a1-6)[Man(a1-3)]Man(a1-6)[Man(a1-2)Man(a1-2)Man(a1-3)]Man
# In short: as §1
# [9] = target: Man(a1-2)Man(a1-6)[Man(a1-3)]Man(a1-6)[Man(a1-2)Man(a1-2)Man(a1-3)]Man(b1-4)GlcNAc(b1-4)GlcNAc
# In short: as §1
# [10] = target: Man(a1-3)[Man(a1-6)]Man
# In short: as §1
# [11] = target: Man(a1-3)[Man(a1-6)]Man(a1-6)[Man(a1-2)Man(a1-3)]Man(b1-4)GlcNAc(b1-4)GlcNAc
# In short: as §1
# [12] = target: Man(a1-3)[Man(a1-6)]Man(a1-6)[Man(a1-3)]Man
# In short: as §1
# [13] = target: Man(a1-3)[Man(a1-6)]Man(a1-6)[Man(a1-3)]Man(b1-4)GlcNAc(b1-4)GlcNAc
# In short: as §1
# [14] = target: Man(a1-3)[Man(a1-6)]Man(b1-4)GlcNAc(b1-4)GlcNAc
# In short: as §1
# [15] = target: Man(a1-6)Man
# In short: as §1
# [16] = target: Man(b1-4)GlcNAc
# In short: as §1
# [17] = target: Neu5Ac(a2-3)Gal
# In short: as §1
# [18] = target: Neu5Ac(a2-3)Gal(b1-3)GalNAc
# In short: as §1
# [19] = target: Neu5Ac(a2-3)Gal(b1-3)GalNAc(b1-3)Gal(a1-4)Gal(b1-4)Glc
# In short: as §1
# [20] = target: Neu5Ac(a2-3)Gal(b1-3)GalNAc(b1-3)Gal(b1-4)GlcNAc
# In short: as §1
# [21] = target: Neu5Ac(a2-3)Gal(b1-3)GalNAc(b1-4)[Neu5Ac(a2-3)]Gal(b1-4)Glc
# In short: as §1
# [22] = target: Neu5Ac(a2-3)Gal(b1-3)GalNAc6S
# In short: as §1
# [23] = target: Neu5Ac(a2-3)Gal(b1-3)GlcNAc
# In short: as §1
# [24] = target: Neu5Ac(a2-3)Gal(b1-3)GlcNAc(b1-3)Gal(b1-3)GlcNAc
# In short: as §1
# [25] = target: Neu5Ac(a2-3)Gal(b1-3)GlcNAc6S
# In short: as §1
# [26] = target: Neu5Ac(a2-3)Gal(b1-3)[Fuc(a1-4)]GlcNAc
# In short: as §1
# [27] = target: Neu5Ac(a2-3)Gal(b1-3)[Fuc(a1-4)]GlcNAc(b1-3)Gal(b1-3)[Fuc(a1-4)]GlcNAc
# In short: as §1
# [28] = target: Neu5Ac(a2-3)Gal(b1-3)[Fuc(a1-4)]GlcNAc(b1-3)Gal(b1-4)[Fuc(a1-3)]GlcNAc
# In short: as §1
# [29] = target: Neu5Ac(a2-3)Gal(b1-3)[Neu5Ac(a2-3)Gal(b1-4)]GlcNAc
# In short: as §1
# [30] = target: Neu5Ac(a2-3)Gal(b1-3)[Neu5Ac(a2-6)]GalNAc
# In short: as §1
# [31] = target: Neu5Ac(a2-3)Gal(b1-4)Glc
# In short: as §1
# [32] = target: Neu5Ac(a2-3)Gal(b1-4)GlcNAc
# In short: as §1
# [33] = target: Neu5Ac(a2-3)Gal(b1-4)GlcNAc(b1-2)Man(a1-3)[GlcNAc(b1-2)Man(b1-4)GlcNAc(b1-2)Man(a1-6)]Man(b1-4)GlcNAc(b1-4)GlcNAc
# In short: as §1
# [34] = target: Neu5Ac(a2-3)Gal(b1-4)GlcNAc(b1-2)Man(a1-3)[Neu5Ac(a2-6)Gal(b1-4)GlcNAc(b1-2)Man(a1-6)]Man(b1-4)GlcNAc(b1-4)GlcNAc
# In short: as §1
# [35] = target: Neu5Ac(a2-3)Gal(b1-4)GlcNAc(b1-3)Gal(b1-3)GlcNAc
# In short: as §1
# [36] = target: Neu5Ac(a2-3)Gal(b1-4)GlcNAc(b1-3)Gal(b1-4)GlcNAc
# In short: as §1
# [37] = target: Neu5Ac(a2-3)Gal(b1-4)GlcNAc(b1-3)Gal(b1-4)GlcNAc(b1-3)Gal(b1-4)GlcNAc
# In short: as §1
# [38] = target: Neu5Ac(a2-3)Gal(b1-4)GlcNAc(b1-3)Gal(b1-4)[Fuc(a1-3)]GlcNAc
# In short: as §1
# [39] = target: Neu5Ac(a2-3)Gal(b1-4)GlcNAc(b1-3)GalNAc
# In short: as §1
# [40] = target: Neu5Ac(a2-3)Gal(b1-4)GlcNAc(b1-6)[Gal(b1-3)]GalNAc
# In short: as §1
# [41] = target: Neu5Ac(a2-3)Gal(b1-4)GlcNAc(b1-6)[Neu5Ac(a2-3)Gal(b1-3)]GalNAc
# In short: as §1
# [42] = target: Neu5Ac(a2-3)Gal(b1-4)GlcNAc6S
# In short: as §1
# [43] = target: Neu5Ac(a2-3)Gal(b1-4)[Fuc(a1-3)]GlcNAc
# In short: as §1
# [44] = target: Neu5Ac(a2-3)Gal(b1-4)[Fuc(a1-3)]GlcNAc(b1-3)Gal
# In short: as §1
# [45] = target: Neu5Ac(a2-3)Gal(b1-4)[Fuc(a1-3)]GlcNAc(b1-3)Gal(b1-4)GlcNAc
# In short: as §1
binder,measurement,setting,value
"LcH (Lens culinaris), P02870 (protein) TETTSFSITKFSPDQQNLIFQGDGYTGKEGLTLTKVSKETGGRALYSTPIHIWDRDTVNVANFVTNGSQVFRESPNGYNVADGFTFFIAPVDTKPQTGGGYLGVFYNGKEYDKTSQTVAVEFDTFYNAAWDPSNKERHIGIDVNSIKSVNTKSWNLQNGVTSYTLNEVVPLKDVVPEWVRIGFSATTGAEFAAQEVHSWSFNSQLGHTSKS",glycan array binding signal (z-score),[1],0.499
same,glycan array binding signal (z-score),[2],0.8
same,glycan array binding signal (z-score),[3],-0.089
same,glycan array binding signal (z-score),[4],1.24
same,glycan array binding signal (z-score),[5],3.73
same,glycan array binding signal (z-score),[6],-0.1
same,glycan array binding signal (z-score),[7],-0.089
same,glycan array binding signal (z-score),[8],0.076
same,glycan array binding signal (z-score),[9],-0.103
same,glycan array binding signal (z-score),[10],-0.127
same,glycan array binding signal (z-score),[11],1.05
same,glycan array binding signal (z-score),[12],-0.103
same,glycan array binding signal (z-score),[13],-0.115
same,glycan array binding signal (z-score),[14],-0.129
same,glycan array binding signal (z-score),[15],-0.118
same,glycan array binding signal (z-score),[16],-0.11
same,glycan array binding signal (z-score),[17],-0.115
same,glycan array binding signal (z-score),[18],-0.118
same,glycan array binding signal (z-score),[19],-0.115
same,glycan array binding signal (z-score),[20],-0.117
same,glycan array binding signal (z-score),[21],-0.11
same,glycan array binding signal (z-score),[22],-0.126
same,glycan array binding signal (z-score),[23],-0.118
same,glycan array binding signal (z-score),[24],-0.099
same,glycan array binding signal (z-score),[25],-0.102
same,glycan array binding signal (z-score),[26],-0.109
same,glycan array binding signal (z-score),[27],-0.088
same,glycan array binding signal (z-score),[28],-0.136
same,glycan array binding signal (z-score),[29],-0.117
same,glycan array binding signal (z-score),[30],-0.113
same,glycan array binding signal (z-score),[31],-0.126
same,glycan array binding signal (z-score),[32],-0.126
same,glycan array binding signal (z-score),[33],-0.112
same,glycan array binding signal (z-score),[34],-0.113
same,glycan array binding signal (z-score),[35],-0.114
same,glycan array binding signal (z-score),[36],-0.13
same,glycan array binding signal (z-score),[37],-0.142
same,glycan array binding signal (z-score),[38],-0.111
same,glycan array binding signal (z-score),[39],-0.093
same,glycan array binding signal (z-score),[40],-0.122
same,glycan array binding signal (z-score),[41],-0.129
same,glycan array binding signal (z-score),[42],-0.115
same,glycan array binding signal (z-score),[43],-0.118
same,glycan array binding signal (z-score),[44],-0.119
same,glycan array binding signal (z-score),[45],-0.046

# From the supplement of paper PMC8728848
